# This is one part of the list.
# Test system: PfHDP1 homeodomain (GST-tagged)
# Experiment: gcPBM binding intensity (ln(normalized median fluorescence intensity)); higher = stronger DNA binding
# How it was run: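 The binding buffer was 1× PBS containing 1% milk, 0.2 mg/ml BSA, 0.5% salmon testes DNA and 0.03% Triton X-100. In it, GST-tagged P. falciparum DNA-binding domains expressed in E. coli were applied for 1 h to an Agilent 4 × 180k array of primer-extended double-stranded 36-bp intergenic genomic probes plus negative controls. Binding intensity, read with Alexa488 anti-GST antibody and a 488 nm scan, is the highest Masliner-normalised natural-log median intensity across replicate spots of either probe orientation.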
row,Sequence,gcPBM binding intensity (ln)
1,ATCCGTGGGTGAAATACACACATGATAATGTGAATG [CACACA_site4662],6.26
2,AATTATGTGTGTCAATGTACACGATTTACATAATAT [XGTACX_site5150],6.33
3,TGAAAAATATAAGGTTGTACTTACATCGGGAATAAT [XGTACX_site4701],6.63
4,AATATATGGTTTCTTGATATTAAATTCAATTTAATG [CACACA_negctrl_site69],6.42
5,TATATTAAAATAATCACACACATCAATTAATGGTAA [CACACA_site1234],6.26
6,TTTGAATACTGAATGGTGCAAATTGTTCTCCCCATG,10.5
7,AGTATAACTTTTGCGCGTACACACATTTATCCTCTT [XGTACX_site429],7.8
8,TACAAATGCGTATGTCAATATATGGAGAAATAAATA [TGCATGCA_negctrl_site290],6.44
9,TGTATATGGTTTGTGCAAAAATTTATTAATGTGTAA [TGCATGCA_negctrl_site374],10.1
10,TATAATAATATTTACACACGCATATGTTATATATAT [CACACA_site1477],6.77
11,ATTTGTATATACATATGTACACATGTAGGCTCATAA [XGTACX_site1709],6.92
12,TTTCGTAAACTTTATGCACACACATATACATATTTC [CACACA_site8146],10.2
13,TTTTTTTTTACTAACTGTACTAAAGAAAAAAAAGGG [XGTACX_site3519],6.57
14,ATAAAGGAATTTTATACACACAACATATATATATAT [CACACA_site2861],9.06
15,ATATAAACACTGAATGCATGCACATATATATATATA [TGCATGCA_site940],9.37
16,GGGGGGGGAGGGTGAATACACACGTAATAATCATAA [CACACA_site1716],9.28
17,CGTATTATTATATAAACACACAAGGGGGCATGTATA [CACACA_site745],7.74
18,ATGTGTATATGTGTGGGTACTTAATTTTTTTCTTTA [XGTACX_site5351],7.17
19,TATCTTTTTTTTAATACACACAAATATATGAAAGTA [CACACA_site4161],6.64
20,GTTATAATTGAACTAGTGCATAAATATATTTTAATT [GTGCAC_site9851],9.15
21,AATTCTGGCAAAATAACACACACATATATTTTATAT [CACACA_site9064],6.58
22,AGGATATATATATTCACACACACATGGAAATATATA [CACACA_site383],6.39
23,ATATATATTTTATATTGTACTTATTATTTTTAGGGC [XGTACX_site723],6.12

row,Sequence,gcPBM binding intensity (ln)
1,TATGAATATCTATACACACACATATAAATACACGCT [CACACA_site6853],6.7
2,TTATATATTTTTAGGTGTACTTTTTTTTTTTTTTTT [XGTACX_site8164],6.4
3,TATTTTTTGAAAAGTTCACACATCCAACTCGAGTTG [CACACA_site4412],6.41
4,AAAAAAAAAAAAAATACACACATATTTTATAGGGGA [CACACA_site3261],6.41
5,AAAATAATGAAATGAAAAAAAAAAATTTAGATTCTA [CACACA_negctrl_site1385],6.04
6,GTCATATATTTATGTACACACATATATATATTTATA [CACACA_site4911],6.44
7,TAGATGTAAGTACATACACACATATATAAATAAATA [CACACA_site8528],6.4
8,CTAATTGTTATTTTGTGTACTTATCATTCGAAATAT [XGTACX_site7963],6.57
9,AAAAAACAAATAAGTAAACACACATATATAATATAT [CACACA_site8830],6.68
10,ATATATATTTTAATTACACACAAAAAAAAAAAAAAA [CACACA_site4778],6.42
11,TATTCTAAGATAAGTGGTACTTATATATAATATATA [XGTACX_site8316],6.31
12,TATTTTTAATTTTTTAATGGTTTAATATTTTTATAT [CACACA_negctrl_site1186],6.01
13,ATATATATATATATATGTACATAAACATATATATAT [XGTACX_site1064],9.35
14,TCTTTAGCTTCTTCTTTTTTTTTTTTTTTTTTTTTT [XGTACX_negctrl_site518],6.98
15,TATAATATACTATGTGGTACATATATATATTTATAG [XGTACX_site4556],6.1
16,ATATATAATATTGGTGGTACAAGGGTATTTTATATT [XGTACX_site8215],6.6
17,GTATAATTGGAAATTACACACCTTAGAATGTAACAT [CACACA_site4059],6.09
18,ATTATAATATATATATGTACATATATATATAATACT [XGTACX_site5092],6.48
19,TCATTTATTTTTCTTTGTACACAAAAGTTTTTATGT [XGTACX_site690],6.78
20,CATATGTTATATGTAGTGCATTACTATAGGATTTAT [GTGCAC_site9860],9.47
21,TATTTTGCAAAATGTGCATGTTGTGTATTATGTGAC [TGCATGCA_site59],10.3
22,CACAAATATACAAATACACACAAATATACAAATACA [CACACA_site2385],6.86
23,GTAAAATTTACATAGAGTACTTATATTTTTTTCTGC [XGTACX_site3414],6.41

row,Sequence,gcPBM binding intensity (ln)
1,TTGTCTACAAAAATGTGCTTCTAATCATACGACTTG [CACACA_negctrl_site46],6.03
2,TACATATATTATTGCACACATATAAAATACCCCCAA [CACACA_site3895],10.8
3,CAGTTTACTAATATTGCACACGAATATGAAAAAGAG [CACACA_site8941],9.89
4,TTTTTCACACTTCAAAAGTGTCAACCTTCTATTCTC [TGCATGCA_negctrl_site489],6.03
5,TTATCATTTGCCATTGTGCACTTATATGCTCACATT,10.3
6,AAAAAAAATTATGAAGTGCATTAGTGAATTTGATTG,9.09
7,TTTTTTTTTCAAGAGGTGCGTGTATTTTAACAAAAA,6.8
8,AAAAAAAATAAAATAATAAAAATTATGAATATATAT [CACACA_negctrl_site280],6.34
9,TGGAGGTCAGTTCACAGTACCCAGTAACTCTACGGA [XGTACX_site2549],5.97
10,ATCATTCCACTTTTCACACATATCTCTATTTCTATC [CACACA_site4723],7.25
11,AAATGTATAGGAATAATAATAAAAAAAAAAAAAAAT [CACACA_negctrl_site1793],6.44
12,ATAGGTAATAATAATACACACGGTGAAATATAGATG [CACACA_site9336],6.68
13,TCTTGTCTACCTTGTATTTAATATTTACATATATAA [TGCATGCA_negctrl_site320],7.17
14,TATTTCTTATTACATACACACATATACATAGATGAC [CACACA_site5729],6.84
15,TTCTTGTATATATTTTGTACATATATACCATTTTAG [XGTACX_site2409],6.64
16,TATATGTTTTTATGTACACACTTTTAACCTAAGAAA [CACACA_site4769],6.68
17,TATTTGTAAAAATTGTGTACTTAGAAAATTCCAAAA [XGTACX_site6007],6.04
18,ATTTTTTTTTTCTTTTTTTTTTGTTTTTCTCCTTTT [CACACA_negctrl_site1182],6.06
19,ATTTTTTTTATTATTACACACATATAATAAAAAAAT [CACACA_site1802],6.69
20,ATATTGTAAGTAAACACACACACATATATCTGTATA [CACACA_site4541],6.43
21,TAAAGTGTAAAATTCACACACATATATATATATATA [CACACA_site4883],9.47
22,GTATAATTTATTGAACGTACACATATATATATGTAT [XGTACX_site1395],6.44
23,AATAAAATGCAATACATTTTGTTATATAATGTTGTT [CACACA_negctrl_site1525],6.99

row,Sequence,gcPBM binding intensity (ln)
1,CACAATGTAGTGTATAAATACAATAAAAGGTTGTAT [CACACA_negctrl_site700],6.47
2,TATTTATAAAAATATACACACATACAAATATGCATA [CACACA_site4555],6.59
3,TATAAGTTGATATATACACACATATATAAATATGTA [CACACA_site7526],6.4
4,CTTATTTAATGTATCACACACGAGAATAAAAAATAA [CACACA_site3020],6.52
5,ATGGTTTTCAGAAAAACATGCATACAATAATAAAAA [TGCATGCA_site815],7.22
6,TTTAAAATAACCAAAAACAAAAAGAAACACAAATGT [GTGCAC_negctrl_site705],6.95
7,AAAAAAAAAATTTACTGTACACATTTGGGATACTCA [XGTACX_site5191],5.98
8,GATCAAATAGAAAATACATGCAATGTGTGAAATAAC [TGCATGCA_site835],7.33
9,TTTCAAATGGAATGTGTGCACATAAATGTAAATAAA,10.8
10,ATTTATATATAGGTGTGTCCACAAATAGTATGTAAA [XGTACX_site2916],6.59
11,GTATATAGTATGTAGAGTACTAATTTCCATATGTTC [XGTACX_site7816],6.35
12,CAATATTTTCATAGATGTACTTTGGACTTATTATAT [XGTACX_site4849],6.17
13,AATTAATATATAAATAATAAAAAAAAATATATAAAC [XGTACX_negctrl_site280],6.63
14,TAAATAAAAGATACGAGTACGTATGATGTTAACCTC [XGTACX_site8840],6.26
15,ATGAAAAAAAATAAAAAATATATATATATATATATA [CACACA_negctrl_site236],9.49
16,TATAACCATATATACACACACATATAAATATAAATA [CACACA_site7089],6.82
17,TATATTTTAATTTGAAGTACTAATATTTATTTATAT [XGTACX_site7458],6.14
18,ATATATATATATTTCGTGCACTGATAATATTATTTT,9.62
19,AAGGTGGAAACAATTACACACACACTAAAAAAAAAA [CACACA_site7493],6.69
20,ATATGTAGTTTTTATTGTACGTGTAGAAGAAATAAT [XGTACX_site6608],7.05
